Measured values: the supplement of paper PMC10338343
± gives the standard deviation. Only a part is listed here, and it is no random draw.

Tested on: MIWI (PIWIL1) piRISC loaded with L1MC piRNA (30 nt)
Assay: pre-steady-state target cleavage rate (min^-1); MIWI and MILI are mouse PIWI proteins and EfPiwi is from a freshwater sponge; tags in brackets are library labels; higher = faster piRNA-guided slicing of the target
Conditions: guide: L1MC piRNA 5'p-UAACUAAAUACUAUGCAAGCUGUAGGUCCU
In short: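 A transcribed, DNA-blocked target RNA library […] was incubated at 33 °C for 0–8 or 0–960 min with 1 nM active affinity-purified piRISC carrying one synthetic guide, in HEPES–potassium acetate buffer with or without 500 nM GTSF1 partner protein. Uncleaved targets were then sequenced and normalised to depth and to weakly complementary targets. Data from three trials were pooled, with k3 capped at 0.0001 min^-1, and a burst-and-steady-state fit yielded the pre-steady-state cleavage rate.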

[1] = auxiliary factor: 500 nM mouse GTSF1
[2] = auxiliary factor: none (no GTSF1)
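Further: 1 nM active piRISC with 0.1 nM target library at 33 °C single turnover.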

| Sequence | pre-steady-state target cleavage rate [1] | pre-steady-state target cleavage rate [2] |
| --- | --- | --- |
| UCGACCUACAGCUAGCAAAGUAUUUAGUUA | 1.1 ± 0.062 | 0.00621 ± 0.002 |
| UCCUGGAUGUGCUUGCAUUGUAUUUACUUA | 0.0266 ± 0.0072 | 0.0102 ± 0.0032 |
| UCCACCUACAGCUUGGAUAGUAUAUAGUUA | 0.547 ± 0.043 | 0.0205 ± 0.0039 |
| UCCUCCUACAGCUUGCAUAGUAUUGAGUUA | 0.343 ± 0.031 | 0.0282 ± 0.0039 |
| UCCUGGAUCAGCUUGCAUAGUAUGUAGUUA | 0.587 ± 0.027 | 0.024 ± 0.0057 |
| UCCUGGAUGAGCUUGCAUAGUAAUUUAGUUA | 0.045 ± 0.0059 | 0.00926 ± 0.0016 |
| UCCUGCUACAGAUUGCAUAGUAUUUAGUUA | 1.18 ± 0.06 | 0.0188 ± 0.0035 |
| UCCUGGAUCAGCUUGCAUAGUAUUAUGUUA | 0.28 ± 0.032 | 0.00874 ± 0.0027 |
| UCCUGGAACACCUUGCAUUGUAUUUAGUUA | 0.235 ± 0.024 | 0.00889 ± 0.0019 |
| UCGUCCUACAGCUUGCAUAGUAUAUAGUUA | 0.637 ± 0.026 | 0.0248 ± 0.0039 |
| AGGACCAACUGCUUGCAUAGUAUUUAGUUA | 1.22 ± 0.056 | 0.0799 ± 0.014 |
| UCCUGGAAGAGCUUGCAUAGUAUUUAGUUA | 0.875 ± 0.046 | 0.0433 ± 0.0086 |
| UGGACCUACUGCUUGCAUACUAUUUAGUUA | 0.29 ± 0.02 | 0.0286 ± 0.0067 |
| UCCACGUACAGCUUCCAUAGUAUUUAGUUA | 0.0581 ± 0.014 | 0.0042 ± 0.0014 |
| UCGACCUAGAGCUUGCAUAGUAUUUUGUUA | 0.884 ± 0.085 | 0.0292 ± 0.0057 |
| UCCUGCUCAGCUUGCAUAGUAUUUAGUUA | 1.09 ± 0.043 | 0.0636 ± 0.013 |
| UCCUGCUAGAGCUUGCUUAGUAUUUAGUUA | 0.492 ± 0.047 | 0.0179 ± 0.0037 |
| UCCUCCUAGUGCUUGCAUAGUAUUUAGUUA | 0.384 ± 0.026 | 0.0278 ± 0.005 |
| UCCUGGAUCAGCUUGCAUAGUACUUUAGUUA | 0.331 ± 0.031 | 0.00773 ± 0.0033 |
| UCGACCUACAGCUUGCCUAGUAUUUAGUUA | 1.14 ± 0.046 | 0.0457 ± 0.0085 |
| UCCUGGAUCAGCUUGCAAAGUAUUUAGAAA | 0.256 ± 0.026 | 0.00556 ± 0.0027 |
| UGGACCUAGUGCUUGCAUAGUAUUUAGUAA | 0.285 ± 0.021 | 0.0169 ± 0.0038 |
| UCGACCUGCAGCUUGCAUAGUAUUUAGUUA | 1.41 ± 0.072 | 0.0674 ± 0.013 |
| UCCUGCUACACGUUGCAUAGUAUUUAGUUA | 1.13 ± 0.053 | 0.0124 ± 0.0035 |
| UCCUCCUACAGCUUGCAUAGAAUUUUGUUA | 0.303 ± 0.048 | 0.00989 ± 0.0026 |
| AGGACCUACAGCUUGCAUAGUAUAUUGUUA | 0.498 ± 0.05 | 0.0335 ± 0.0055 |
| UCGACCUACAGCUUGCAAUCUAUUUAGUUA | 0.227 ± 0.021 | 0.0028 ± 0.002 |

| Sequence | pre-steady-state target cleavage rate [1] | pre-steady-state target cleavage rate [2] |
| --- | --- | --- |
| UCCUGGAUGAGCUUGCAUAGUAUUCUAGUUA | 0.28 ± 0.036 | 0.0103 ± 0.0031 |
| UCCACCUACAGCUUGCUUAGAAUUUAGUUA | 0.2 ± 0.025 | 0.00583 ± 0.0018 |
| UGGACCUACAGCUUGCAUGUAUUUAGUUA | 0.353 ± 0.055 | 0.00423 ± 0.0025 |
| UCCUGGAUGUCCUUGCAUAGUAUUAAGUUA | 0.0295 ± 0.0085 | 0.00292 ± 0.0021 |
| UCCUGGAUGUGCUUGCUUAGUAUAUAGUUA | 0.0109 ± 0.0032 | 0.00495 ± 0.0019 |
| AGGACCUACAGCUUGCAAAGUAUUAAGUUA | 0.668 ± 0.053 | 0.0106 ± 0.0028 |
| UCCUGGUACAGCUUGCUUUGUAUUUAGUUA | 0.119 ± 0.012 | 0.0105 ± 0.002 |
| UCGACCUACAGCUUGCAUAGUAUUUAGUUG [g2:g28:cont:t1G] | 0.569 ± 0.04 | 0.0703 ± 0.013 |
| UCGACCUACAGCUUGCAUACUAUUUAGUUA | 0.41 ± 0.024 | 0.0312 ± 0.0058 |
| UCCUGGAUCAGCUUGCAUAGUAUUUUGUUA | 0.75 ± 0.036 | 0.0311 ± 0.0076 |
| UCCUCCUACUCGUUGCAUAGUAUUUAGUUA | 0.909 ± 0.036 | 0.0157 ± 0.0034 |
| UCCUGGUACAUCUUGCAUAGUAUUUAGUUA | 0.672 ± 0.045 | 0.0421 ± 0.008 |
| UCCUGGAACAGAUUGCAUAGUAUUUAGUUA | 0.957 ± 0.051 | 0.0213 ± 0.0047 |
| UGGACCUACAGCAUGCAUAGUAUUUACUUA | 0.397 ± 0.042 | 0.023 ± 0.0053 |
| UCCUGGUACACCUUGCAUAGUAUUUUGUUA | 0.436 ± 0.1 | 0.00901 ± 0.0027 |
| UCCUGCUACAGCUUGCAUAGUAUCUAGUUA | 0.53 ± 0.04 | 0.0388 ± 0.0058 |
| AGGACCUACAGCUUGCUUACUAUUUAGUUA | 0.461 ± 0.026 | 0.0147 ± 0.0035 |
| UCGACCUUCUGCUUGCAUAGUAUUUAGUUA | 1.45 ± 0.048 | 0.0653 ± 0.011 |
| UCCAGCUACAGCUUGCAUAGUAUUUAGAUA | 0.322 ± 0.042 | 0.012 ± 0.0026 |
| UCCUGGUACAGCUUGCAUAGUUUUUUGUUA | 0.183 ± 0.032 | 0.0195 ± 0.0058 |
| UGGACCUACAGCUUGCAUUGAAUUUAGUUA | 0.208 ± 0.02 | 0.00966 ± 0.0034 |
| UCGACCUACAGCUUGCAUAGUACUUUAGUUA | 0.733 ± 0.036 | 0.0121 ± 0.0031 |
| AGGACGUACAGCUUGCUUAGUAUUUAGUUA | 1.31 ± 0.055 | 0.0487 ± 0.0095 |
| AGGACGUACAGCUUGCAUAGUUUUUAGUUA | 0.344 ± 0.02 | 0.037 ± 0.0092 |
| UCCUGGAUGAGCUUGCUUAGUAUUAAGUUA | 0.118 ± 0.018 | 0.00713 ± 0.0029 |
| AGGACCUUGUGCUUGCAUAGUAUUUAGUAA | 0.608 ± 0.073 | 0.0299 ± 0.0073 |
| AGGACCUUCAGCUUGCAUAGUAAUUAGUUA | 0.921 ± 0.054 | 0.0391 ± 0.0084 |
